Results reported in patent US20220023420A1 (PRECIGEN, published 2022).

B1: Anti-PD-1 (VL6-VH7).IgG4(S108P). TGFbRII (other)
heavy: QVQLVQSGVEVKKPGASVKVSCKASGYTFTNYYMYWVRQAPGQGLEWMGGINPSNGGTNFNEKFKNRVTLTTDSSTTTAYMELKSLQFDDTAVYYCARRDYRFDMGFDYWGQGTTVTVSSASTKGPSVFPLAPCSRSTSESTAALGCLVKDYFPEPVTVSWNSGALTSGVHTFPAVLQSSGLYSLSSVVTVPSSSLGTKTYTCNVDHKPSNTKVDKRV[human IgG4 Fc with S228P L445P (EU numbers) not printed]GGGGSGGGGSIPPHVQKSVNNDMIVTDNNGAVKFPQLCKFCDVRFSTCDNQKSCMSNCSITSICEKPQEVCVAVWRKNDENITLETVCHDPKLPYHDFILEDAASPKCIMKEKKKPGETFFMCSCSSDECNDNIIFSEEYNTSNPD
light: EIVLTQSPATLSLSPGERATLSCRASKGVSTSGYSYLHWYQQKPGQAPRLLIYLASYLESGVPARFSGSGSGTDFTLTISSLEPEDFAVYYCQHSRDLPLTFGGGTKVEIKRTVAAPSVFIFPPSDEQLKSGTASVVCLLNNFYPREAKVQWKVDNALQSGNSQESVTEQDSKDSTYSLSSTLTLSKADYEKHKVYACEVTHQGLSSPVTKSFNRGEC
B2: PD-1 Fc fusion protein (Fc fusion)
chain: not shown
notes: also called PD-1-Fc antigen; PD-1 fused to human Fc region; not shown: human Fc region

What was measured:
TGF-β1 = TGF-β1 (UniProt P01137 in part); test: cell-based or functional assay
Chain of TGF-β1 (P01137 279-390 limits assumed): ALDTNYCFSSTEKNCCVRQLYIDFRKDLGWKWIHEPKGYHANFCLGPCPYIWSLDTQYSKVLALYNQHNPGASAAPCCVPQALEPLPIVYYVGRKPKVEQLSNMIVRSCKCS

[1] = biological target: T1, Anti-PD-1 (VH6-VL5) IgG4-ADA2 (UniProt Q9NZK5 30-511); test: SPR (Biacore 3000), recombinant PD-1 Fc immobilized on CM5, fusion protein injected
T1 construct: not shown: IgG4 constant region
Experimental: (§1) Surface plasma resonance (SPR) analysis was performed using Biacore3000, CM5 chip, an amine-coupling kit, 10×HBS-P running buffer and Glycine for. […] Dissociation was allowed to proceed followed by regeneration of the chip surface.

[2] = biological target: T2, Anti-PD-1 (VH6-VL5) IgG1-ADA2 (UniProt Q9NZK5 30-511); test: as above
T2 construct: IgG1 format; also called anti-PD-1 (VH6/VL5) hIgG1-ADA2; not shown: IgG1 constant region
Experimental: as §1

[3] = biological target: Anti-PD-1 (VH6-VL5) scFv-ADA2 (Homo sapiens (Human), UniProt Q9NZK5 30-511); test: as above
Experimental: as §1

[4] = biological target: T3, Anti-PD-1 (VH7-VL6) IgG1-ADA2 (UniProt Q9NZK5 30-511); test: as above
T3 construct: IgG1 format; not shown: IgG1 constant region
Experimental: as §1

Binder | IC50-inhibition of TGF-β1 induced reporter gene activity (HEK-Blue TGF-β cells, SEAP) (TGF-β1) | Kd [1] | Kd [2] | Kd [3] | Kd [4]
B1 | 9.3 pM |  |  |  | 
B2 |  | 0.0616 pM | 0.309 pM | 3460 pM | 0.509 pM
